Results published in US20190023770A1.

Target: hemagglutinin of influenza A virus H1N1 A/PR/8/1934 (influenza A virus A/PR/8/1934 (H1N1)) (UniProt P03452)
Assay: cell-based or functional assay

B1: monoclonal antibody 39.29 NWPP (antibody, V domains shown)
VH: EVQLVESGGGVVQPGKSLRLSCAASGLTFSSYAVHWVRQAPGKGLEWVTLISYDGANQYYADSVKGRFTISRDNSKNTVYLQMNSLRPEDTAVYYCAVPGPVFGIFPPWSYFDNWGQGILVTVSS
VL: EIVLTQSPATLSVSPGERATLSCRASQVISHNLAWYQQKPGQAPRLLIYGASTRASGIPARFSGSGSGTDYTLTITSLQSEDFAVYYCQHYSNWPPRLTFGGGTKVEIK
in vitro IC50 (neutralization of virus infection of MDCK cells): 2 nM
